Measurements published in PubChem BioAssay AID1159614 (National Center for Advancing Translational Sciences (NCATS), 2016).
Among all 45,000 compounds or so, about 65 (0.1%) were called active. Calls follow the shape of the dose curve; as a rule, active = well fitted activation curve with a large enough effect; inconclusive = small, poorly fitted or top-dose-only effect; inactive = no such curve, though single readings can be large or run the other way. The list shows a part of the results.

target: Galactocerebrosidase (Homo sapiens) (UniProt P54803); assay: A Novel Cell-Based Assay to Identify Small Molecules for B -Galactocerebrosidase; details: 145M-Twi-hGALC-G270D cells (Twitcher mouse brain line with human GALC G270D), HMU-beta-Gal fluorescence, 48 h; series mostly up to 57.5 µM; activation: at the top concentration; also: 0% is about no effect; nearly all actives have a fitted effect of over 65% in size
Sequence of UniProt P54803 (P54803 whole entry, looked up): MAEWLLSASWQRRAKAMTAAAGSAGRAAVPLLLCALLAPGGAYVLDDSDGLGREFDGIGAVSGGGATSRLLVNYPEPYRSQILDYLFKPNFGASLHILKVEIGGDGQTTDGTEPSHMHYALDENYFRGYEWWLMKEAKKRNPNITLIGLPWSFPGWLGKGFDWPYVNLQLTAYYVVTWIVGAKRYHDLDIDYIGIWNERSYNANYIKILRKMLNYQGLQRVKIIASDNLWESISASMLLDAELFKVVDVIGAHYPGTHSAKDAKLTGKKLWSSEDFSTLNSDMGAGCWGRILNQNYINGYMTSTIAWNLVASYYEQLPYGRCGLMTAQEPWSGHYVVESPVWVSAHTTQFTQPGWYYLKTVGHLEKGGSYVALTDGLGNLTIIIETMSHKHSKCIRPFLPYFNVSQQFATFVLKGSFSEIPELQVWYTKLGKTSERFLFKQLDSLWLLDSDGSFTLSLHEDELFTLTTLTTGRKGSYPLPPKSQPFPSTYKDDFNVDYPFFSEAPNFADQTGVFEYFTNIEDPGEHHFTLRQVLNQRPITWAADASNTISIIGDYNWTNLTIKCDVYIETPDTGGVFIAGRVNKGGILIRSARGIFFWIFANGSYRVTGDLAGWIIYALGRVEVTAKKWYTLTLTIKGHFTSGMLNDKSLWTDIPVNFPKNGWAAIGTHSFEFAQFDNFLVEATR
In short: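 Mutant human GALC (G270D), stably expressed in a Twitcher mouse brain cell line lacking endogenous GALC, is measured in live-treated cells via 6-hexadecanoylamino-4-methylumbelliferyl-β-galactoside hydrolysis (0.1 mM final, pH 5.2) with fluorescent detection.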

activation, inactive:
COc1ccccc1NC(=O)Cn1cnc2c(nc3n2CCCCC3)c1=O -18.5%
O=c1c(N2CCN(c3cccc(C(F)(F)F)c3)CC2)csc2ccccc12 -10.3%
CC1CCN(S(=O)(=O)c2ccc3c(c2)c(=O)c(C(=O)NCc2ccc(Cl)cc2)cn3C)CC1 -8.71%
CC(C)(C)c1ccc(CSc2nc3c(c(=O)[nH]2)CCCC3)cc1 -28.3%
O=C(Nc1ccc(Cl)c(C(F)(F)F)c1)C1CCCN(S(=O)(=O)c2cccc3cccnc23)C1 (configuration not stated) -6.18%
Cc1ccccc1CNC(=O)c1ccccc1NC(=O)c1nsc2ccccc12 12.8%
COc1cc(-c2noc(CSc3nc(-c4ccc(F)cc4)cc(=O)[nH]3)n2)cc(OC)c1OC -18.2%
CCOC(=O)CC(NC(=O)CCc1c(C)nc2c(-c3ccccc3)c(C)nn2c1C)c1ccc(C)cc1 (configuration not stated) 8.5%
COc1ccc(-c2cn3c(n2)sc2cc(C(=O)NCc4cccs4)ccc23)cc1 -11.9%
COc1ccc(-c2c3c(=O)n(C)c(=O)n(C)c3cn2-c2cccc(N)c2)cc1 -9.15%
Cc1ccc(CNC(=O)C2CCN(C(=O)c3ccc(-n4ccc5ccccc54)s3)CC2)cc1 -12.7%
Cc1ccc(-n2nnc(-c3nsc(NC(=O)c4ccccc4C)n3)c2C)cc1Cl -9.55%
O=C(Nc1ccc(F)cc1)N1CCN(c2ccc3nnc(-c4ccc(F)cc4)n3n2)CC1 -0.213%
CCOc1ccc(Nc2c(S(=O)(=O)c3ccc(Cl)cc3)cnc3ccc(OC)cc23)cc1 -2.42%
CCn1cc(C(=O)NCCc2ccc(Cl)cc2)c(=O)c2cc(S(=O)(=O)N3CCc4ccccc4C3)ccc21 -19.4%
COCCCNC(=O)c1[nH]c2cc(OC)ccc2c1Sc1ccc(C)cc1 -7.63%
COc1ccc(Cn2ccc3nc(C)c(C(=O)Nc4ccc(F)cc4)cc3c2=O)cc1 -8.2%
Fc1ccc(-c2nc(-c3cccs3)c(-c3cccs3)[nH]2)cc1 -6.48%
O=C(Nc1nnc(SCc2cc(=O)c3ccccc3[nH]2)s1)c1ccccc1 -9.8%
Cc1nn(-c2ccccc2)c2c1N(CC(=O)NCc1ccc(N(C)C)cc1)C(=O)CS2 -3.36%
Cc1c(NC(=O)Cc2ccc(F)cc2)cccc1-c1nc2cccnc2s1 -0.165%
Cc1cccc(NC(=O)CSc2nc3ccc(NC(=O)COc4ccc(Cl)cc4)cc3s2)c1 -14%
CCOC(=O)c1cc(-c2ccccc2)n(CCC(=O)Nc2ccc(C(F)(F)F)cc2)c1C 17.4%
O=C(NCCn1cc(SCc2cccc(F)c2)c2ccccc21)c1cccc(C(F)(F)F)c1 5.19%
Cc1ccc(N(Cc2cccs2)C(=O)c2ccccc2)cc1 -3.15%
O=C(NCCOCCO)C(=O)Nc1c2c(nn1-c1ccc(F)cc1)CSC2 -11.4%
CCC(=O)N1CCc2cc(S(=O)(=O)CCC(=O)N3CCN(c4ccccc4Cl)CC3)ccc21 -1.14%
CN(c1ncnc2c1c(-c1ccccc1)cn2-c1ccc(F)cc1)C1CCCCC1 -7.43%
Cc1ccc2cc3cc(C(=O)N4CCN(c5cccc(C(F)(F)F)c5)CC4)sc3nc2c1 -4.25%
O=C(O)c1ccc(Nc2nc(-c3ccccc3)c3cc(Br)ccc3n2)cc1 -24.5%
Cn1c(SCC(N)=O)nc2c([nH]c3ccccc32)c1=O 4.99%
COc1ccc(-c2nc3ccc(NS(C)(=O)=O)cc3o2)cc1 -8.32%
Clc1ccccc1Cn1cccc1C1=NC(Cc2ccccc2)CO1 (configuration not stated) -9.29%
CCOc1ccc(-c2nc(CNC(=O)NC3CCCCC3)c(C)o2)cc1 4.77%
CCN(CC)CCNc1ncnc2c1cnn2-c1cc(Cl)ccc1C -21.5%
CCNc1nc(N)nc(Oc2ccc(OCC(=O)OC)nn2)n1 -19.1%
Cc1ccc(C(=O)Nc2nc3nc(C)cc(=O)n3[nH]2)cc1 -15.1%
COc1ccc(CCNS(=O)(=O)c2cc(-c3cc(C)no3)ccc2OC)cc1OC -20.9%
O=C(CCc1ccccc1)N(Cc1cccnc1)c1nc2c(F)cc(F)cc2s1 -14.3%
CCOc1ccc(OCc2ccc(C(=O)Nc3cc(OC)c(OC)c(OC)c3)o2)cc1 -9.19%
CC(C)c1ccc(-c2noc(SCC(=O)N3CCN(c4ccc(F)cc4)CC3)n2)cc1 -19%
Cc1ccc(C)c(Nc2nn3c(=O)c4ccc(C(=O)NCCC5=CCCCC5)cc4nc3s2)c1 -13.3%
Cc1ccc(N2CC(C(=O)NCCS(=O)(=O)N3CCN(c4ccccc4)CC3)CC2=O)cc1C (configuration not stated) -2.94%
CCc1nnc(NS(=O)(=O)c2ccc(N)cc2)s1 -19.9%
O=C(NCCc1csc(-c2ccc(Cl)cc2)n1)c1ccco1 -5.09%
Cc1cccc2nc(-c3ccc(N(C)C)cc3)c(Nc3ccc4c(c3)OCO4)n12 -11.4%
COc1ccc(CCNc2nc3ccc(Cl)cc3n3cnnc23)cc1OC -0.0867%
CCCN(C(=O)C(=O)Nc1ccc2nc3n(c(=O)c2c1)CCCCC3)c1ccc(OCC)cc1 -10.9%
COc1cccc(CNC(=O)CSc2nc(=O)[nH]c3c2CCC3)c1 -5.2%
CCOc1ccccc1C(=O)Nc1cccc2ccc(C)nc12 -8.59%
COc1cc(C2CC(=O)c3c([nH]c(C(=O)OCc4ccc(C)cc4)c3C)C2)cc(OC)c1OC (configuration not stated) -13.4%
COc1cc(NC(=O)c2cc(Cl)ccc2Cl)ccc1NC(=O)c1cc2ccccc2o1 -14.7%
COc1ccccc1-c1nnc(C2CCN(C(=O)c3cccc(Cl)c3)CC2)o1 -13.7%
CCOC(=O)c1ccccc1NC(=O)Cn1c(=O)n(CCC(=O)N2CCc3ccccc3C2)c(=O)c2ccccc21 -12.2%
Cc1cccc(C(c2sc3nc(-c4ccco4)nn3c2O)N2CCN(Cc3ccccc3)CC2)c1 (configuration not stated) 18.9%
Cc1ccc(NC(=O)/C=C/c2ccc(Cl)cc2)c(Br)c1 -4.2%
CCS(=O)(=O)N1CCc2cc(C(=O)NCc3ccc(Cl)cc3)ccc21 -19.2%
COCCCNC(=O)c1[nH]c2ccccc2c1Sc1ccc(C)cc1 -8.55%
CN(C)c1ccc(CNC(=O)c2cnc3sc(N4CCCC4)nn3c2=O)cc1 -3.82%
Cc1ccccc1NC(=O)Cn1c(=O)n(CCCCCC(=O)NCc2ccccc2Cl)c(=O)c2sccc21 -2.41%
COc1ccc(NC(=O)c2ccc3c(SCC(=O)O)c4c(nc3c2)CCCC4)cc1OC 4.09%
CCCOc1ccc(C(=O)Nc2ccc3oc(-c4ccc5ccccc5c4)nc3c2)cc1 -18.3%
CC(=O)c1cccc(NC(=O)CSc2nnc3ccc(-c4ccc(F)cc4)nn23)c1 -6.07%
O=C(Cc1ccccc1)N(Cc1cccnc1)c1nc2ccc(Cl)cc2s1 -13.4%
Cn1c(=O)c2c(nc(Oc3ccc(C#N)cc3)n2Cc2ccc(Cl)cc2Cl)n(C)c1=O -1.55%
CCOC(=O)c1ccccc1NC(=O)Cn1c(=O)n(CCC(=O)NCc2ccccc2OC)c(=O)c2ccccc21 -10.1%
CCOC(=O)c1c(C)oc2ncnc(N3CCN(c4ccc(C)cc4C)CC3)c12 -9.65%
O=C(NCCc1ccccc1)c1cc(-c2ccc(Br)cc2)on1 -13.4%
O=C(Nc1ccc(Br)cc1F)c1cc(S(=O)(=O)NC2CCCC2)ccc1F -42.2%
CCOC(=O)c1cccc(-n2nnc3c(sc4nc(C)c(Br)c(C)c43)c2=O)c1 -14.5%
Cc1sc2ncn(CC(=O)Nc3ccc(F)cc3Cl)c(=O)c2c1S(=O)(=O)N1CCN(c2ncccn2)CC1 -10.5%
CCN1CCN(c2csc3ccc(F)cc3c2=O)CC1 -15%
CCCCN(Cc1cccs1)S(=O)(=O)c1cc(-c2cc(C)no2)ccc1C -1.72%
COc1cccc(-c2nnc3n(Cc4ccc(C)cc4)c(=O)c4ccccc4n23)c1O -15.9%
CCOC(=O)c1c(S(=O)(=O)NCC(=O)N2CCN(c3cccc(Cl)c3)CC2)c(C)n(C)c1C 9.68%
COc1cccc(CNC(=O)c2[nH]c3cc(C)ccc3c2Sc2ccccc2)c1 -8.3%
COc1ccc(-c2nc3scc(CCNS(=O)(=O)c4c(C)noc4C)n3n2)cc1OC -12.4%
Cc1cccn2c(=O)cc(CSc3nnc(NC(=O)COc4ccc(F)cc4)s3)nc12 -7.37%
COc1ccc(NC(=O)c2sc3nc(C)c(C(=O)Nc4ccc(C)cc4C)c(-c4sccc4C)c3c2N)cc1 -12.7%
CCc1c(CN2CCN(c3ccc(F)cc3)CC2)csc1C -6.66%
COc1ccccc1-c1cc(C(F)(F)F)nc(S(=O)(=O)CCCC(=O)Nc2ccccc2F)n1 -12.7%
CC1CCc2c(N3CCC(O)CC3)c(F)cc3c(=O)c(C(=O)O)cn1c23 (configuration not stated) -14.4%
COc1ccc(Nc2ncnc3scc(-c4ccc(F)cc4)c23)cc1 -16.6%
COc1ccc(Cn2c(SCc3ccc(C(=O)NC4CCCCC4)cc3)nc3cccnc32)cc1 -14.8%
CC(=O)Nc1ccc2nc(SCCOc3ccc(C)cc3)sc2c1 -16.5%
Cc1ccc(CN2CCC(CNC(=O)Nc3ccccc3F)CC2)cc1 -12.7%
COc1ccc(C)cc1Nc1nc2c(S(=O)(=O)c3cc(C)ccc3C)nnn2c2ccsc12 -13.4%
COc1cc2c(cc1NC(=O)COc1cc(C)cc(C)c1)oc1ccccc12 -9.04%
O=C(COc1ccc(Cl)cc1)NCCc1csc(-c2ccc(C(F)(F)F)cc2)n1 -13.3%
COCCNc1nc2c(S(=O)(=O)c3ccccc3)nnn2c2ccc(Cl)cc12 -4.33%
COc1ccc(Cn2c(CCC(=O)Nc3ccc(Br)c(C)c3)nc3cccnc32)cc1 -14.8%
CCCCCn1c(=O)[nH]c2cc(C(=O)N3CCN(c4ccc(OC)cc4)CC3)ccc2c1=O -7.51%
CN(C)c1ccc(C(=O)Nc2sc(Nc3ccccc3)nc2C(N)=O)cc1 -29.7%
Cc1ccc(NC(=O)CN(C)S(=O)(=O)c2cccc3cccnc23)c(C)c1 -9.8%
Cc1cc(C)cc(NS(=O)(=O)c2cc3[nH]c(=O)c(=O)[nH]c3cc2C)c1 6.75%
O=C(Cn1nnc(-c2ccc(C(F)(F)F)cc2)n1)NCCc1ccccc1 -17.9%
CCc1ccc(CN(Cc2ccco2)c2cnc(S(C)(=O)=O)nc2C(=O)Nc2ccc(C)c(Cl)c2)cc1 2.39%
